From paper PMC2939065
These are yes or no findings as the source states them, for the method shown. For some assays here: In cells and extracts the contact can be indirect. Some results given as binding are weak or reduced against the parent protein; the word gives no strength. For some assays here: Where a sequence is shown, tags or fusion partners need not be part of it.

Chains of the proteins cited; added tags and fusions are not shown. Lines headed by an entry give the natural chain unless they say otherwise; changes in a name come on top. A line that says so, or that is headed by a name, gives the form on record, which may keep a tag or linker. Residues count along the entry.
UniProt P00519, residues 61-121: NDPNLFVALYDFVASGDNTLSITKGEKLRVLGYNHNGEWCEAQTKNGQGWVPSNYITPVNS
C-terminal tail of PC-1 fused to poly-HIS tag (HIS-PC-1-CT) (P98161, residues 4133-4303): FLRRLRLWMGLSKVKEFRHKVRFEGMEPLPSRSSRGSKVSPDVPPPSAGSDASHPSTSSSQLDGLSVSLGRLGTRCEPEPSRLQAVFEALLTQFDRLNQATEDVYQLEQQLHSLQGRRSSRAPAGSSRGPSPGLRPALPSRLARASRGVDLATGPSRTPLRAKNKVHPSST
HIS-PC-1-CT with Proline 4172 (PP1) replaced with Leucine (P98161-3, form named): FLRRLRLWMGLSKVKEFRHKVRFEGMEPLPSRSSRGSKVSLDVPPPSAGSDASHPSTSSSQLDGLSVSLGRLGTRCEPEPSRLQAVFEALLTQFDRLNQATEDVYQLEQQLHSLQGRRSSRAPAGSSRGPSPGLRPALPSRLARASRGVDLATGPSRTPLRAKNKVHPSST
HIS-PC-1-CT with Proline 4270 (PP2) replaced with Leucine (P98161-3, form named): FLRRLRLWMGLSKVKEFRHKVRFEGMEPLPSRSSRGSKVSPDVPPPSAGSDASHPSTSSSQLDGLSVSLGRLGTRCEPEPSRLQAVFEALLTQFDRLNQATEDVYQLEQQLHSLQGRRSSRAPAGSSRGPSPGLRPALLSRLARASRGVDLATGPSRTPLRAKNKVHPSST

Key:
[1] = target: SH3 domain of Abl fused to GST (pull-down) (UniProt P00519); experiment: pull-down; GST- and HIS-fused proteins expressed in E. coli BL21; cleared supernatants mixed 2 to 4 h at 4°C, then glutathione beads 2 to 4 h at 4°C; immunoblotting
[2] = target: T1, GST-fused SH3 domain of NPHP1 (GST-NPHP1-SH3) (human) (UniProt O15259); experiment: as above
T1 sequence: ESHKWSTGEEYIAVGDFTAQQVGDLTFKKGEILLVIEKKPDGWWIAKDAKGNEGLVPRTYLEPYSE

[3] = target: T2, SH3 domain of NPHP1 fused to GST, spotted on the TranSignal SH3 Domain array (UniProt O15259); experiment: peptide or protein array; TranSignal SH3 Domain arrays (Panomics): GST-SH3 domains spotted in duplicate on membranes, incubated with bacterial extract of HIS-PC-1-CT, detected with anti-HIS antibody and chemiluminescence; spots quantified with ImageQuant; done twice; only the target purified
T2 sequence: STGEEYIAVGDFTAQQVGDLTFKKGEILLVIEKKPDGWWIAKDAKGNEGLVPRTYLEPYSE

binding [1]	binding [2]	binding [3]	Substance
no binding	binds	binds	C-terminal tail of PC-1 fused to poly-HIS tag (HIS-PC-1-CT) (from UniProt P98161-3 4132-4302) (domain or fragment)
–	binds	–	HIS-PC-1-CT with Proline 4172 (PP1) replaced with Leucine (from UniProt P98161-3 4132-4302) (domain or fragment)
–	no binding	–	HIS-PC-1-CT with Proline 4270 (PP2) replaced with Leucine (from UniProt P98161-3 4132-4302) (domain or fragment)
